Reference: article PMC4336329 (PLoS ONE, 2015)
The campaign covered roughly 310,000 compounds. About 2,200 (0.71%) showed an effect of 50% or more. The effect is printed as a negative number. The list shows a part of the results.

molecular target: human ether-à-go-go-related gene (hERG) potassium channel (human, UniProt Q12809); assay: primary screen, population patch clamp on CHO cells stably expressing hERG
Sequence (Q12809 whole entry, looked up): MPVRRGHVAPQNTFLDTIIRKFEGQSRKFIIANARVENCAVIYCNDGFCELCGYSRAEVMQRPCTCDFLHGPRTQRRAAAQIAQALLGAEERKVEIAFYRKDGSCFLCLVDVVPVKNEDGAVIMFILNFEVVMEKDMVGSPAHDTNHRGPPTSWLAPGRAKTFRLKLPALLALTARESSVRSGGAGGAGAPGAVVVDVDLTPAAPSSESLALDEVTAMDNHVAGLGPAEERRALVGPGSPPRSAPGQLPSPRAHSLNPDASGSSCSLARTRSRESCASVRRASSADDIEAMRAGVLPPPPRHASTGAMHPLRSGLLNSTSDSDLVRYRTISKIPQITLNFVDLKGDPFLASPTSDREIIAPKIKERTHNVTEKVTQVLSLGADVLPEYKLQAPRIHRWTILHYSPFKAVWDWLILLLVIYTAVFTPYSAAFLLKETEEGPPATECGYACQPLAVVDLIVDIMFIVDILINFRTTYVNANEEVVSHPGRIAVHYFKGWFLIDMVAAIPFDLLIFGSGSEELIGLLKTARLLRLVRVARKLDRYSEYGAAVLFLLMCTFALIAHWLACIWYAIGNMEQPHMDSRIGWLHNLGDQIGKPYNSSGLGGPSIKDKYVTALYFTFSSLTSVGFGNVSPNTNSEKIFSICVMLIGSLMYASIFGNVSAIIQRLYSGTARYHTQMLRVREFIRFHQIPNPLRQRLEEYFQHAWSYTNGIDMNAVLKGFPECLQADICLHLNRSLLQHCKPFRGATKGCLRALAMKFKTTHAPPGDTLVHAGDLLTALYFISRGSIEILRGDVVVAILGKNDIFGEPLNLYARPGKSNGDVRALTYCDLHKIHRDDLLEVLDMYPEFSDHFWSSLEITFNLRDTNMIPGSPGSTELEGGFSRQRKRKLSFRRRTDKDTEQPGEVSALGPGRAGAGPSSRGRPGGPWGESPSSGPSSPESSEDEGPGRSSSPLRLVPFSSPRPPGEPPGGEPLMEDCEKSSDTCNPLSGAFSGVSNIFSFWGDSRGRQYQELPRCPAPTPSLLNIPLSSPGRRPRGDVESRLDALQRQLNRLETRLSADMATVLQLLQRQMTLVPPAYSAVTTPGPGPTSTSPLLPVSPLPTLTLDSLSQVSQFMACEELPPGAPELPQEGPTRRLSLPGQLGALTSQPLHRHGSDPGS

SMILES	hERG current change (%, negative = inhibition) at 1uM
COc1ccc(C2=NS(=O)(=O)N(C)C(C(=O)NCc3ccc4c(c3)OCO4)=C2)cc1OC	-14.3%
O=C(CCC(=O)N1CC2C[C@@H](C1)Cn1c2cccc1=O)NCCc1ccccc1	-4.99%
CCCCn1c(=N)n(CC(O)COc2ccccc2)c2ccccc21 (centres unmarked)	-68%
COc1cccc(NC(=O)COC(=O)c2ccccc2SCC(=O)N2CCCC2)c1	23.2%
Cc1cc(=O)n2[nH]c(-c3ccccc3Cl)cc2n1	11.3%
O=Cc1nc(-c2ccc(Cl)cc2)n2ccccc12	-2.33%
O=C(NCc1ccccc1)C1CCCN(S(=O)(=O)c2cccc3nonc23)C1 (centres unmarked)	6.52%
O=C(CCC1CCCN(C(=O)c2ccncc2)C1)NCc1ccc(F)c(F)c1 (centres unmarked)	2.09%
O=C(NCc1ccccc1)c1cccc(COc2ccccc2Cl)c1	17.7%
COc1cccc(NC(=O)c2oc3ccccc3c2NC(=O)c2ccc3c(c2)OCO3)c1	-0.218%
Cn1ncc(Br)c1NC(=O)CSc1ccc(Cl)cc1	11.8%
Cc1ccc(OCc2cc(C(=O)N3CCC(c4ccccc4Cl)C3)no2)cc1C (centres unmarked)	6.9%
O=S(=O)(c1cccc(S(=O)(=O)N2CCN(c3ncccn3)CC2)c1)N1CCOCC1	1.31%
Cc1c(Cl)cccc1-n1c(SCC(=O)N(C)Cc2ccccc2)nnc1-c1ccncc1	-16.2%
O=C(CN1CCCCC1)N/N=C/c1cccc(Cl)c1	-1.53%
Cc1ccc(C(=O)N(CC(=O)Nc2ccc(Cl)c(Cl)c2)Cc2ccco2)cc1	13.7%
O=C(COc1ccc([N+](=O)[O-])cc1)N1CCc2ccccc2C1	-15%
O=C(CN1C(=O)CSc2ncccc21)NCCN1CCOCC1	1.38%
COc1ccc(NC(=S)N2CCC(Cc3ccccc3)CC2)cc1	2.76%
Cn1ncc([N+](=O)[O-])c1C(=O)Nc1nccs1	14.2%
COc1ccccc1NC(=S)Nc1cccc2cnccc12	3.4%
CC(=O)Nc1ccc(N2CCOCC2)c(Cl)c1	5.27%

SMILES	hERG current change (%, negative = inhibition) at 1uM
CN(c1ccccc1)S(=O)(=O)c1cccc(NS(=O)(=O)c2cccc(C(=O)O)c2)c1	7.26%
COc1cccc(/C=N/Nc2snc(SC)c2C#N)c1O	9.3%
COc1cc(OC)cc(C(=O)N[C@H](C(=O)OCC(=O)Nc2ccc(C(C)C)cc2)C(C)C)c1	9.37%
CN(C)CCCn1c(N)c(S(=O)(=O)c2ccccc2)c2nc3ccccc3nc21	-12.3%
Cc1cc(NC(=O)CS(=O)(=O)c2cn(Cc3ccccc3Cl)c3ccccc23)no1	2.27%
CC(=O)c1cc2c(cc1NC(=O)CN1Cc3ccccc3C1=O)OCO2	4.59%
CSCCC(NC(=O)c1ccco1)C(=O)OCc1cc([N+](=O)[O-])cc2c1OCOC2 (centres unmarked)	6.95%
CC1CCCN(S(=O)(=O)Cc2ccc(Cl)cc2)C1 (centres unmarked)	6.3%
O=C(NCc1n[nH]c(=S)n1-c1ccc(Cl)c(Cl)c1)c1ccc(S(=O)(=O)N2CCCCC2)cc1	12.9%
COc1cccc(CN2CCNC(=O)C2CC(=O)N(C)Cc2cnccn2)c1OC (centres unmarked)	17.7%
O=C(COc1ccc(Cl)cc1)NCCNC(=O)c1cnccn1	7.73%
COC(=O)c1ccc(NC(=O)CN(c2ccc3c(c2)OCO3)S(C)(=O)=O)cc1	12.5%
Cc1ccc(-c2ccc(NC(=O)C3C4C=CC(C4)C3C(=O)O)cc2)o1 (centres unmarked)	14.5%
CC(C)n1nc(Cc2cccc3ccccc23)c(C#N)c1N	-0.0121%
O=C1CCCN2N=C(SCC(=O)Nc3cccc(F)c3)SC2=N1	-1.24%
COc1ccc(NC(=O)c2ccc(NC(=O)C3CC3)cc2)cc1	-0.0678%
CC(=O)Nc1ccc(SCC(=O)Nc2cc(C)on2)cc1	-8.3%
Cc1c(C(=O)N2CCCC2)c(S(=O)(=O)Nc2ccccc2)c(C)n1C	17%
O=C(NCC1CCCCC1)c1cccnc1	16.5%
COc1ccc(C2=CC(=O)C[C@H](c3ccc(OC)cc3)C2)cc1	0.975%
CCC(C)N(C(=O)CCC(=O)Nc1cc(C)on1)C(C(=O)NC(C)(C)C)c1ccccc1Cl (centres unmarked)	10.5%
CCOC(=O)CN(C)C(=O)CCc1nnc(-c2ccsc2)o1	11.1%

SMILES	hERG current change (%, negative = inhibition) at 1uM
COc1ccc(CN(CC(=O)NC2CCCCC2)C(=O)CCCC(=O)Nc2ccccn2)cc1	9.4%
COc1ccc2oc(C(=O)OCC(=O)N3CCCC3=O)c(C)c2c1	16.1%
NC(=O)c1ccccc1N=Cc1ccc2ccccc2c1	14.2%
CCOC(=O)c1c(NC(=O)CCC(=O)NCc2ccco2)sc2c1CCCC2	13%
O=S(=O)(c1cc(Cl)ccc1Br)N1CCCCC1	-2.73%
Cc1c(C)c2ccc(OC(C)C(=O)N3C[C@H]4C[C@@H](C3)c3cccc(=O)n3C4)c(C)c2oc1=O (some centres unmarked)	20.9%
COC(=O)C1=C(N)OC2=C(C(=O)CC(C)(C)C2)C1c1ccccc1OCC#N (centres unmarked)	10.6%
Cc1ccc(S(=O)(=O)N2CCC(C(=O)NNC(=O)c3ccncc3)CC2)cc1	12%
CCCNC(=O)COc1nc2ccccc2nc1N1CCOCC1	9.19%
O=C(Nc1ccccc1Oc1cccnc1)C1CCCN(Cc2cccc(Cl)c2)C1 (centres unmarked)	6.89%
COC(=O)[C@@]1(Cc2ccc(OC)cc2)[C@H]2c3cc(C(=O)N4CCCC4)n(CCO)c3C[C@H]2CN1C(=O)c1ccccc1	-0.587%
CC(C(=O)NCc1ccccc1)N(Cc1ccccc1Cl)C(=O)c1snc(C(N)=O)c1N (centres unmarked)	14.8%
C/C(O)=C(/C=NCC(=O)O)C(=O)Nc1nccs1	2.61%
O=C(CN1CCN(Cc2ccccc2Cl)CC1)N/N=C/C=C/c1ccccc1[N+](=O)[O-]	-14.7%
Cc1nn2c(N3CCCC3)cc(C(C)C)nc2c1-c1ccccc1	2.7%
COC(=O)c1ccccc1SC1CC(=O)N(c2cccc(C)c2)C1=O (centres unmarked)	18.2%
COc1ccc(S(=O)(=O)Nc2ccc3c(c2)CCC3)cc1	16.2%
C[C@@H](C(=O)Nc1ccc2ccccc2c1)[C@H]1C[C@]1(C)[C@H](NC(=O)OCc1ccccc1)c1ccccc1	12.6%
CC1(C)CC(=O)C=C(NCCN2CCN(C(=S)Nc3ccccc3)CC2)C1	7.14%
CCOc1cc(NC(=S)NCC(C)C)c(OCC)cc1NC(=O)c1cccs1	8.32%
Cc1ccc(NS(=O)(=O)c2c(C)[nH]c(=O)[nH]c2=O)c(Br)c1	13.7%
Cc1ccc(C(=O)NCC(=O)OCc2nnc(-c3ccccc3)o2)cc1	2.34%

SMILES	hERG current change (%, negative = inhibition) at 1uM
C=CCNC(=O)c1c(CSc2ccc(F)cc2)noc1C(=O)NCCC	11.8%
Cc1c(CCC(=O)N[C@@H](C)C(=O)O)c(=O)oc2c(C)c3oc4c(c3cc12)CCCC4	2.95%
Cc1cnc(NC(=O)C2CC=CCC2)s1 (centres unmarked)	20.5%
CCOC(=O)/C(C(C)=O)=C1/OC(=O)c2ccccc21	9.8%
O=C(NCc1ccccc1)C1=C[C@H](c2coc3ccccc3c2=O)C[C@H](OCc2ccc(CO)cc2)O1	-1.9%
COc1ccc(S(=O)(=O)/N=C2/C=CC(=O)C(C)=C2C)cc1	-7.77%
COCCNC(=O)C(OC(=O)c1cccs1)c1ccc(F)cc1 (centres unmarked)	-21.4%
Cc1cc(C(=O)Nc2ccc([N+](=O)[O-])cn2)cs1	16.4%
O=C(/C=C/c1cccs1)N1CCC2(CC1)Oc1ccc(F)cc1C(=O)C21CC(c2ccccc2)=NO1 (centres unmarked)	3.49%
CN(C(=O)c1nn(C)c2c1CS(=O)(=O)c1ccccc1-2)c1cccc(Cl)c1	3.91%
Cc1ccc(NC(=S)N/C(=N/S(=O)(=O)c2ccccc2)c2ccccc2)cc1	8.9%
Cc1cc(=O)[nH]c(SCC(=O)Nc2ccc3c(c2)CCC3)c1C#N	8.12%
Cc1noc(C)c1S(=O)(=O)N1CCC(C(=O)Nc2ccccn2)CC1	-5.02%
CC(C)(C)c1ccc(O)c(N)c1	9.43%
CCCOc1ccc(C(CC(=O)O)NC(=O)C(c2ccccc2)c2ccccc2)cc1 (centres unmarked)	11.6%
CC(C(=O)c1c[nH]c(C(=O)N=CN(C)C)c1)c1ncc(C(F)(F)F)cc1Cl (centres unmarked)	7.65%
O=C(/C=C\Nc1cccc(F)c1)c1cccs1	16.1%
CCCc1nc2c(=O)[nH]c3ccccc3c2o1	5.98%
COc1cc(C(=O)NC2(C(F)(F)F)NC(=O)N(CCCc3ccccc3)C2=O)cc(OC)c1OC (centres unmarked)	-0.405%
O=P(C(=Nc1ccc(Cl)cc1)N1CCOCC1)(N1CCOCC1)N1CCOCC1	1.44%
